Measured values as given in the supplement of paper PMC3334620.
Over roughly 33,000 sequences, “E-score (-0.5 to 0.5)” has its median near -0.01; the highest 2% begin near 0.26. This is one part of the list.

target: Ste12 (UniProt P13574); assay: PBM E-score (8-mer binding enrichment) (E-score (-0.5 to 0.5)); higher = stronger / more preferred TF binding; most listed sequences are background and not binding sites; conditions: protein concentration: 200 nM; construct: GST-DNA-binding domain
Summary of the method: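 Bound GST-tagged yeast transcription factors, applied at about 100-200 nM to double-stranded universal all-10-mer Agilent arrays, were detected with fluorescent anti-GST. Scans were normalised with masliner. A modified Wilcoxon-Mann-Whitney statistic, the E-score, was assigned to each ungapped eight-base word pooled with its reverse complement by the Universal PBM Analysis Suite.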

| Sequence | PBM E-score |
| --- | --- |
| AGTTGGTC | -0.0312 |
| ATTCGAAA | 0.286 |
| GCCGGCAC | 0.185 |
| GGATGCAC | -0.116 |
| ATATGCAT | -0.00898 |
| CAGGTCCC | -0.104 |
| AGCACATG | 0.0517 |
| GTATAGTA | 0.0829 |
| CTCAAAGA | -0.121 |
| AGAGTGTC | -0.038 |
| ACAGAAAG | 0.171 |
| CACGAGTG | -0.123 |
| GAAATAAC | 0.121 |
| AACAGTGC | -0.0232 |
| CTTAATAA | 0.232 |
| GAGACAAA | 0.0489 |
| CGCGCCCA | 0.0944 |
| TAACTTAA | 0.181 |
| TATCAACA | 0.149 |
| ACGGCTAA | 0.0492 |
| GCAGTCGA | -0.137 |
| GGCGGTGA | 0.0499 |
| ACCTTTAC | 0.122 |
| CGTCAAAA | 0.222 |
| ATATGGAA | 0.152 |

| Sequence | PBM E-score |
| --- | --- |
| GTGGTAAC | 7e-05 |
| AGCGCTTG | 0.0698 |
| CGTATTGA | -0.0513 |
| AAGAATGC | 0.0457 |
| ACCCTCCG | -0.135 |
| ACCGGACG | 0.0849 |
| CTGGTAGC | -0.0426 |
| CATAGTCG | -0.0118 |
| AACAACAG | 0.0455 |
| CAAGGACA | -0.162 |
| ATATCTTG | 0.0172 |
| ACTATAAA | 0.241 |
| GGGCACTA | -0.26 |
| AATCGACG | -0.226 |
| CGATTGGA | 0.0116 |
| GTCGTCAA | -0.0716 |
| GAATATAC | -0.00195 |
| AATCTCGT | -0.113 |
| CCTCACAA | 0.116 |
| TAAAAATA | 0.318 |
| ATGAAGTA | -0.0129 |
| AGTTCAGC | -0.18 |
| ACACCGAA | 0.108 |
| AGCGTCTA | -0.136 |
| GTCCGTCA | -0.0791 |

| Sequence | PBM E-score |
| --- | --- |
| AGAAACCT | 0.0443 |
| ACGTGACA | -0.0169 |
| ACTGGACA | -0.139 |
| GACCGAGC | -0.0435 |
| ACTACTCT | -0.01 |
| AATGTATA | -0.0582 |
| GCATGGAA | 0.107 |
| CAGCGTTC | -0.188 |
| ATAGTATA | 0.154 |
| AATAGGAC | -0.0484 |
| AATCGTAC | 0.00489 |
| GCTTTATA | 0.132 |
| GCAATAAC | 0.0195 |
| GACCGACA | -0.099 |
| ACTCAATA | 0.162 |
| GAATCGAA | 0.296 |
| CATGTACG | -0.0362 |
| CAGTCAGC | -0.105 |
| CTTCAAAA | 0.191 |
| AAAATGGA | 0.237 |
| GGATGACC | -0.203 |
| AGAGTAAG | -0.0257 |
| CCGTGCAA | -0.0521 |
| AGTGTCAC | -0.00393 |
| AACACTAT | 0.101 |

| Sequence | PBM E-score |
| --- | --- |
| GACCAGCC | 0.0084 |
| AGGGGTCG | -0.144 |
| CTGCTGAA | 0.0211 |
| CTGTCGTC | 0.0262 |
| ATGAAACA | 0.495 |
| AGCAGCAC | -0.131 |
| TACAACTA | 0.268 |
| CTCATTAA | 0.111 |
| TCATTGGA | 0.0443 |
| CCATTGCG | -0.0146 |
| CCCTATGA | -0.0337 |
| TGAGTACA | -0.0797 |
| ATAAGCAA | 0.148 |
| ATGCGGTG | -0.0382 |
| CCTTGAAA | 0.21 |
| GAACCATA | 0.0795 |
| AAGGCACT | -0.0898 |
| TGAGACAA | 0.274 |
| ACACCTCG | -0.00674 |
| GAGGACGA | -0.111 |
| ATTGCACG | 0.206 |
| CTCCCTGC | -0.133 |
| GTGCGAGA | 0.127 |
| CGGTCGAG | 0.0722 |
| CTCTCTCC | -0.224 |

| Sequence | PBM E-score |
| --- | --- |
| CCGGTAGC | -0.213 |
| CTCAGTTA | 0.0251 |
| CGAAGAAC | 0.0849 |
| AGTCTCTA | -0.102 |
| AATTAGTA | 0.263 |
| GCAGGAAA | 0.0227 |
| TGATGAAA | 0.258 |
| ATTGTTAC | 0.297 |
| CGGTTCGA | 0.0766 |
| AGAGCCGG | -0.0983 |
| TAAGGAAA | -0.0536 |
| ATTATCTC | 0.104 |
| CAGTAGAG | -0.141 |
| CTGGCAAG | -0.00041 |
| AGCTTATG | -0.0351 |
| ACAAGTTA | 0.0925 |
| ACGTCTGC | -0.226 |
| AAAAGACG | 0.0308 |
| AGGACGCG | -0.187 |
| CACGACCG | -0.221 |
| AGCTCGCG | 0.0164 |
| ACGCCGAG | 0.095 |
| GAGTCGGA | 0.126 |
| GGTGCAAC | -0.255 |
| CCAGTATA | 0.00607 |

| Sequence | PBM E-score |
| --- | --- |
| CCTTAAAA | 0.162 |
| ATCCATAG | -0.0969 |
| AGTCTATG | -0.205 |
| ATCAAGCA | 0.0192 |
| TATGACGA | 0.0384 |
| CTGCGGTC | -0.0632 |
| GAAAGCCC | 0.00308 |
| ATGAAGAA | 0.168 |
| GCTCATAC | -0.244 |
| GAATTCTC | 0.262 |
| AGAGCCCA | -0.184 |
| GATCCACC | -0.144 |
| AACGTGGT | -0.0847 |
| ATACTGGC | -0.161 |
| CCATCGGG | -0.131 |
| AGGTGCAG | -0.0129 |
| AGTTGTGC | -0.00131 |
| CCGATTCC | 0.0929 |
| GGCTGGTA | -0.142 |
| AAAGTGAA | 0.19 |
| AGACGGAA | 0.0863 |
| ACGAATTA | -0.0187 |
| TCCCTAAA | 0.00792 |
| GAGTATAA | 0.104 |
| AACGGTTG | 0.0246 |

| Sequence | PBM E-score |
| --- | --- |
| ATTCGGGC | -0.132 |
| CTACTCAC | 0.0346 |
| ACTCCACA | 0.067 |
| CGGATGGC | 0.0109 |
| ACATTTTA | 0.194 |
| GCGTTCGA | -0.0414 |
| CTAGATTC | 0.0461 |
| CTAACTCA | -0.122 |
| ATCGAACA | 0.0732 |
| ACCAAAGG | -0.192 |
| CGTTTTAA | 0.319 |
| GCGCGGAC | 0.106 |
| GTAATTTA | 0.223 |
| CCCTGGTC | -0.294 |
| CCCAATGC | -0.288 |
| ACCTGAAT | 0.173 |
| CGAAGCGA | -0.113 |
| AAACTCAA | 0.178 |
| ATGTTTCC | 0.178 |
| CGTGGGTC | -0.148 |
| AGAGGGAC | -0.183 |
| ACAGCAGT | 0.0122 |
